Measurements published in the RNAGym collection of RNA variant scans (doi:10.1073/pnas.2313332121).
This sample is rich in variants without activity.

B1: TPR 5TU (parent)
chain: GGAUCUUCUCGAUCUAACAAAAAAGACAAAUCUGCCACAAAGCUUGAGAGCAUCUUCGGAUGCAGAGGCGGCAGCCUUCGGUGGCGCGAUAGCGCCAACGUUCUCAACUAUGACACGCAAAACGCGUGCUCCGUUGAAUGGAGUUUAUCAUG

Variants of: B1
Test: polymerase ribozyme fitness, log enrichment relative to wild type (log ratio); higher = more active; in vitro selection for triplet polymerase activity
How it was run: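 Mutant libraries were PCR-built and transcribed for each subunit of a heterodimeric triplet polymerase ribozyme and selected for one round in triplicate at −7 °C, frozen, before gel excision of extended constructs and streptavidin-bead capture. Input and output libraries were Illumina-sequenced, keeping genotypes with ≥10 input reads and ≥1 read per output. Fitness is a logarithmic ratio of genotype to wild-type enrichment, in base 2, using inverse-variance-weighted replicate averages.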

Variant	polymerase ribozyme fitness (log ratio)
A17C C27G A28G G70C A119G U127G U148C	≤ -4.2
A17C C32G C54A C76G G80A C93A C96A U111A U145G	≤ -4.2
A17C C36A C87A C95U A97C C105U U151G	≤ -4.2
A17C C54A	-1.11
A17C C57A A91G G140A	≤ -4.2
A17C C99A	-0.000978
A17C C125G G126A	-3.65
A17C G25A G62U G117U	-2.71
A17C G34C G83U G124U C125G A137C	≤ -4.2
A17C G42A C85U C95U G124U G136U C149U	≤ -4.2
A17C G42C U44A C54U C105G	≤ -4.2
A17C G50C C76A C85U G86C C125G	≤ -4.2
A17C G59C G84U G100A U135C A137C	≤ -4.2
A17C G59C U102G C123A	-2.05
A17C G81C G100C C118U	≤ -4.2
A17C G83C C87A G152U	≤ -4.2
A17C G88U C95A G117C C129U U148C	≤ -4.2
A17C G88U C149G	≤ -4.2
A17C U33C G42C C51A U53A U139G A142G	≤ -4.2
A17C U33C G88A C96U U102G C116U A142U	≤ -4.2
A17C U61G C85U G126A G140U U151A G152C	≤ -4.2
A17C U82A C85A C93U	≤ -4.2
A17G A20U C32G U45C C54A G65C C108U	≤ -4.2
A17G A24C C96U G100C U144G U151A	≤ -4.2

Variant	polymerase ribozyme fitness (log ratio)
A17G A26U A29U G42A G94U A110G A115U G140A	≤ -4.2
A17G A28C C69G U145C U146C U148G	≤ -4.2
A17G A28U A49U G58C G86A A115U C125U A142U A150U	≤ -4.2
A17G A29C A107U U135G	≤ -4.2
A17G A30U C35G U53A C87G G92U C96A U145C	≤ -4.2
A17G A39C A107U	≤ -4.2
A17G A39C C79A C87A G136C	≤ -4.2
A17G A39C G83U C87U G100C U135C	≤ -4.2
A17G A39G C79G A89U C96G A142U	≤ -4.2
A17G A41U A73U C85G C87A C99A G100A	≤ -4.2
A17G A49U G83U	-3.31
A17G A52G C85G	-2.03
A17G A89G G92A C108G	≤ -4.2
A17G A147U	1.55
A17G C18G U31G G68A C87U G133U	≤ -4.2
A17G C35U C36U C95U	≤ -4.2
A17G C35U C93A C96A	≤ -4.2
A17G C36U C93G	-3.8
A17G C38U C54U C87A C103G A147G	≤ -4.2
A17G C38U C69U A97U C114A	≤ -4.2
A17G C38U U77C C96A U148C	≤ -4.2
A17G C54U C57G C85G A98C A115G G152A	≤ -4.2
A17G C54U G59A C72U G88A A147G	≤ -4.2
A17G C72U A147C	-0.924

Variant	polymerase ribozyme fitness (log ratio)
A17G C76U C93A U144C U151G	≤ -4.2
A17G C79A C87A G88A C99U A119C C149G	≤ -4.2
A17G C79U C85U C131G	≤ -4.2
A17G C93U	-0.578
A17G G25A C93U U102G U104G G136U G143U	≤ -4.2
A17G G48A	-1.03
A17G G50A U55G A89U C93A	≤ -4.2
A17G G50C	-2.81
A17G G58A C93U U101G U139A	≤ -4.2
A17G G58A G59C C69U C95U U104A	-3.74
A17G G58C C72U G152A	-2.87
A17G G62A C63U G65A C96A C125G	≤ -4.2
A17G G70A C75G C96U C99G	-4.15
A17G G70U U82G C114A	≤ -4.2
A17G G83U A107U U135C	≤ -4.2
A17G G83U U134A	-2.39
A17G G84A C93A A98G C129G	≤ -4.2
A17G G84C	-1.85
A17G G133U	-3.47
A17G U33A G58A G74C C85A C95U	≤ -4.2
A17G U53A	-0.401
A17G U55C A89C G112U	≤ -4.2
A17G U77C A91G A113G G126C U151A	≤ -4.2
A17U A19C C87G A89U	≤ -4.2

Variant	polymerase ribozyme fitness (log ratio)
A17U A19G A22U A49C U55C A64U C93A	≤ -4.2
A17U A19G A30G C38G U45A G88U	≤ -4.2
A17U A19G A37C G59A U61A C76U G94U G124A	≤ -4.2
A17U A19G G46C G62U C87G A119C	≤ -4.2
A17U A19G U44A C103A C125U	≤ -4.2
A17U A19U C93G U111G	≤ -4.2
A17U A20C C85U U102G C116G	-3.83
A17U A22G G67C U82C G86U A97U G140U	≤ -4.2
A17U A22U A26G C36G A66G C85U C99A	≤ -4.2
A17U A23C A24C A29G G42C G59C C87G A115C	≤ -4.2
A17U A24U A39U U45A G59C U135G C149A	≤ -4.2
A17U A26C C76A G86A C96A C105G A115G	≤ -4.2
A17U A28C A49C	≤ -4.2
A17U A28C G46U G59C G86C G112C	≤ -4.2
A17U A28U A52C U77A G83A C125G G141C G143A	≤ -4.2
A17U A29C A41G G59C C85G U145A	≤ -4.2
A17U A29C A64U C118U U134G	≤ -4.2
A17U A29C A66C C95A C132G	≤ -4.2
A17U A29C C43G G86A U135C	-4.06
A17U A29G G74A U148G	≤ -4.2
A17U A29U G50C A91U C116A U139C	≤ -4.2
A17U A30G G46A C75U C95U	≤ -4.2
A17U A37U G68C U90C C93U C105U	≤ -4.2
A17U A39C U45A G74C A110U A122U	≤ -4.2

Variant	polymerase ribozyme fitness (log ratio)
A17U A49U A52C C57A C96G C114G U127G	≤ -4.2
A17U A60U	-0.153
A17U A66G C93U U139A G141A U146G	≤ -4.2
A17U A110U	≤ -4.2
A17U C18G A21G A52C U53C C57U C87A G141A	≤ -4.2
A17U C32U C54U C149U	≤ -4.2
A17U C32U G128U	≤ -4.2
A17U C35U G81U G84A A91C G92A U127C G143A	≤ -4.2
A17U C36U C103G C114A C123G C131A	≤ -4.2
A17U C54A U55C A73G C93A C116G A121U	≤ -4.2
A17U C57G	-0.677
A17U C57G U61A G67C G83C G92U G128A	≤ -4.2
A17U C57U G136A	0.435
A17U C76G A91C C108G	≤ -4.2
A17U C87G G88U G140A G143C U148C	≤ -4.2
A17U C87U C96U U104C A107U G141U	≤ -4.2
A17U C87U C125U	-1.39
A17U C93A G94U A121U A150G	≤ -4.2
A17U C93A G100A C103G A113U C125U	≤ -4.2
A17U C93A U127G	≤ -4.2
A17U C93U	-1.07
A17U C93U G100A A107C G117A A121C U148G C149G	≤ -4.2
A17U G25U U44A G48U C76A C87G A122U G140A	≤ -4.2
A17U G34U U56A C69A C96G	≤ -4.2

Variant	polymerase ribozyme fitness (log ratio)
A17U G42A A91C A122U G136C	≤ -4.2
A17U G42A G74C G86C G88U A91U A121U G133U	≤ -4.2
A17U G42U C76U C79U C87A	≤ -4.2
A17U G46A C51U U53C C85A A122C	≤ -4.2
A17U G46A G74C C76A A107C A115U	≤ -4.2
A17U G48A A73G C79G C87A G88A G117A A121C	≤ -4.2
A17U G48C G50U C76A C93A	≤ -4.2
A17U G50A	-2.57
A17U G50U C63U C93U C103U G126A C132U	-3.74
A17U G65U G83A	≤ -4.2
A17U G67C G71C G86A A107U A121U U144G	≤ -4.2
A17U G71C C96A A119U U139A U148C	≤ -4.2
A17U G83U	-1.65
A17U G84A C123G	-0.525
A17U G86C A150C	≤ -4.2
A17U G94C C132U	-1.54
A17U G143U U151C	≤ -4.2
A17U U31G A37U G48A A49U G59A A60C G62U C93G A121U	≤ -4.2
A17U U44G U56A C87A C95U C118U	≤ -4.2
A17U U45A U56A C57U C93A A107U A120G G141U	≤ -4.2
A17U U55G G68U G84A C103A G152A	≤ -4.2
A17U U77G G83C U102G C105A	≤ -4.2
A17U U104A A106U G141C	≤ -4.2
C18A A19G A37U U53A G83A U102G C132G G133A	≤ -4.2

Variant	polymerase ribozyme fitness (log ratio)
C18A A19G C57A C87U C129A U135G	≤ -4.2
C18A A19G G67C C72U G80C U101A C131G A138U	≤ -4.2
C18A A19G U33C C54G G81U G84A	≤ -4.2
C18A A19U G25A A47U G50A G62U C96G U104G G143A	≤ -4.2
C18A A20U A22U C85U G88A C108U G143A	≤ -4.2
C18A A21U A29U U56A C95A A137G A142C	≤ -4.2
C18A A22C A26U A40G C51U U55G A73C G81U G86U U90C U109C	≤ -4.2
C18A A23G A28C C43U A52C U146A	≤ -4.2
C18A A26G C35U G94U A121G	≤ -4.2
C18A A26U G84A A138G	≤ -4.2
C18A A29U G136A	≤ -4.2
C18A A37C G88A C93U	≤ -4.2
C18A G70C C87G C93A	≤ -4.2
C18A G84A U101A C103G G140A U146A A150G	≤ -4.2
C18A G141C	-0.603
C18A U33A U56A G88A C114U U130A	≤ -4.2
C18G A20G G25C U33G G68U C96U A98G	≤ -4.2
C18G A20U A22G A26C G50A U55A C95U	≤ -4.2
C18G A21C C38G A91C	≤ -4.2
C18G A21C G42U U78A A91G U101G	≤ -4.2
C18G A22C C51U G83A G92A A150C	≤ -4.2
C18G A22C C79U C93A	≤ -4.2
C18G A23C A29G C51U C72G G81A G140U	≤ -4.2
